# Data: publication PMC5700166
# The list shows a part of the results, in another mix than the full data. The list includes weakly bound sequences.
# Legend:
# Assay in all cases: protein-binding microarray (PBM)
# Conditions in all cases: PBM: ~300 nM protein, 6 mM HEPES pH 7.8, 80 mM KCl, 0.5 mM EDTA, 0.5 mM EGTA, 6% glycerol, 35 ng/ul poly-dIdC, 1% milk, 1 h, room temperature; Ap Aiptasia and Nv Nematostella (sea anemones) / Co Capsaspora / Aq Amphimedon (sponge) / Dm Drosophila / Hu human; RHD is the Rel homology domain; high values mean tight binding; most listed sequences are background and not binding sites; double strand, one strand shown
# [1] = target: T1, GST-Nv-NF-kB (Cys allele) (UniProt E5G601)
# T1 sequence: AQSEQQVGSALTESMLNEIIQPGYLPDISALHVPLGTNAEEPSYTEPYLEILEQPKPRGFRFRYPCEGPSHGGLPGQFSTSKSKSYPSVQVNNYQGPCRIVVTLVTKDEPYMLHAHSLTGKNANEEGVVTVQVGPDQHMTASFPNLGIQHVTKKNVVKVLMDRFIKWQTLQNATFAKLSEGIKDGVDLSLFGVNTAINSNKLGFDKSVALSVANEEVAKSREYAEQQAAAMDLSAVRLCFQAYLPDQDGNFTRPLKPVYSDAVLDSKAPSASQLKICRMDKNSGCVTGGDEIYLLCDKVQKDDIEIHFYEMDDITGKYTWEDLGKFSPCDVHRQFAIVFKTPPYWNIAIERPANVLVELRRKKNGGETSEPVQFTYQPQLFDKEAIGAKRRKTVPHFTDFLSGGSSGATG
# GST-Co-NF-kB = target: T2, GST-Co-NF-kB (UniProt F1ARL5)
# T2 sequence: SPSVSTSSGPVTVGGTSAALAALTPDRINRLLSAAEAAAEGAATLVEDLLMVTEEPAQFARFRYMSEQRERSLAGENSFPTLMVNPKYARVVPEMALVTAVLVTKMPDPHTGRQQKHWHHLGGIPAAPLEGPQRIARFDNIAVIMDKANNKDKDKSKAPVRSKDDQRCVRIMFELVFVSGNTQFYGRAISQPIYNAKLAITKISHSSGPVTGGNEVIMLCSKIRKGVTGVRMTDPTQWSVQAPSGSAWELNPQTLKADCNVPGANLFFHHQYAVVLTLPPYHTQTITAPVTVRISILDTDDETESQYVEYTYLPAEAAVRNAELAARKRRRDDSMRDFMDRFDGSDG
# GST-Dm-Relish = target: T3, GST-Dm-Relish (UniProt Q94527)
# T3 sequence: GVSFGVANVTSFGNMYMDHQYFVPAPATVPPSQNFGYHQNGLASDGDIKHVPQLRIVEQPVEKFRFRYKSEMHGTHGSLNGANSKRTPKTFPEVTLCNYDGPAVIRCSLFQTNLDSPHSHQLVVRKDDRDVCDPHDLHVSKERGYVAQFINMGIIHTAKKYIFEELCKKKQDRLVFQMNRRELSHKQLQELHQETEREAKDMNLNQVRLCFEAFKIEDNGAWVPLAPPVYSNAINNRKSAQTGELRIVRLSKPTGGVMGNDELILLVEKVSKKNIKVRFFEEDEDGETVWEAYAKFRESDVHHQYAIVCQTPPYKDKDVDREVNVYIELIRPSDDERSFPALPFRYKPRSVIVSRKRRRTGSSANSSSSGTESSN
Sequence,binding signal [1] [z-score],binding signal (GST-Co-NF-kB) [z-score],binding signal (GST-Dm-Relish) [z-score]
CCGATTAACATCAAGTATTCCCCTGATGTTAATCGGGTCTTGATTCGCTTGACGCTGCTG,9.28,7.58,–
CCGATTAACATCAAGTTTCCCCATGATGTTAATCGGGTCTTGATTCGCTTGACGCTGCTG,6.87,9.1,–
CCGATTAACATCACGGTAATTCCTGATGTTAATCGGGTCTTGATTCGCTTGACGCTGCTG,2.05,0.274,–
CCGATTAACATCAAAATATTCCCTGATGTTAATCGGGTCTTGATTCGCTTGACGCTGCTG,7.36,4.81,–
CCGATTAACATCAATGTCCCCCCTGATGTTAATCGGGTCTTGATTCGCTTGACGCTGCTG,4.79,8.35,–
CCGATTAACATCAGGAATTCCTATGATGTTAATCGGGTCTTGATTCGCTTGACGCTGCTG,0.117,0.332,–
CCGATTAACATCAGGAAACACCATGATGTTAATCGGGTCTTGATTCGCTTGACGCTGCTG,0.185,0.0331,–
CCGATTAACATCAAAATTACCCCTGATGTTAATCGGGTCTTGATTCGCTTGACGCTGCTG,6.27,7.33,–
CCGATTAACATCAGGGGAATAAATGATGTTAATCGGGTCTTGATTCGCTTGACGCTGCTG,7.82,8.22,–
CCGATTAACATCAGAGTTCCCCCTGATGTTAATCGGGTCTTGATTCGCTTGACGCTGCTG,7.87,8.96,–
CCGATTAACATCACCCCAGCCCCTGATGTTAATCGGGTCTTGATTCGCTTGACGCTGCTG,1.93,2.88,–
CCGATTAACATCAGGGACACCCCTGATGTTAATCGGGTCTTGATTCGCTTGACGCTGCTG,4.44,3.39,–
CCGATTAACATCACGGGCACCCCTGATGTTAATCGGGTCTTGATTCGCTTGACGCTGCTG,0.527,1.34,–
CCGATTAACATCAAATGGGAATTTGATGTTAATCGGGTCTTGATTCGCTTGACGCTGCTG,4.5,1.12,–
CCGATTAACATCAGGGGAAGTCATGATGTTAATCGGGTCTTGATTCGCTTGACGCTGCTG,7.2,4.69,–
CCGATTAACATCACTTTTTCCCATGATGTTAATCGGGTCTTGATTCGCTTGACGCTGCTG,3.6,4.08,–
CCGATTAACATCAAATTTCCCCTTGATGTTAATCGGGTCTTGATTCGCTTGACGCTGCTG,10.8,7.98,–
CCGATTAACATCAGGGACTTCTATGATGTTAATCGGGTCTTGATTCGCTTGACGCTGCTG,6.35,0.975,–
CCGATTAACATCACGGGGGAATATGATGTTAATCGGGTCTTGATTCGCTTGACGCTGCTG,7.14,10.6,–
CCGATTAACATCAGGAATGCCCATGATGTTAATCGGGTCTTGATTCGCTTGACGCTGCTG,-0.129,0.0557,–
CCGATTAACATCAGAAAGTCCCATGATGTTAATCGGGTCTTGATTCGCTTGACGCTGCTG,7.09,0.851,–
CCGATTAACATCAAAGAATTCCCTGATGTTAATCGGGTCTTGATTCGCTTGACGCTGCTG,7.26,4.52,–
CCGATTAACATCAGGGGAGTATATGATGTTAATCGGGTCTTGATTCGCTTGACGCTGCTG,3.81,4.7,–

Sequence,binding signal [1] [z-score],binding signal (GST-Co-NF-kB) [z-score],binding signal (GST-Dm-Relish) [z-score]
CCGATTAACATCAGGGGTTTTGATGATGTTAATCGGGTCTTGATTCGCTTGACGCTGCTG,3.46,1.34,–
CCGATTAACATCAATATTCCCCATGATGTTAATCGGGTCTTGATTCGCTTGACGCTGCTG,8.39,8.46,–
CCGATTAACATCAAATTTCCCACTGATGTTAATCGGGTCTTGATTCGCTTGACGCTGCTG,4.26,4.39,–
CCGATTAACATCAGGGAATATACTGATGTTAATCGGGTCTTGATTCGCTTGACGCTGCTG,3.81,3.18,–
CCGATTAACATCAGAAGTCCCCCTGATGTTAATCGGGTCTTGATTCGCTTGACGCTGCTG,7.32,5.95,–
CCGATTAACATCAACGGGTCCCTTGATGTTAATCGGGTCTTGATTCGCTTGACGCTGCTG,1.84,-0.487,0.232
CCGATTAACATCATGGGAAGGTTTGATGTTAATCGGGTCTTGATTCGCTTGACGCTGCTG,1.55,2.28,0.64
CCGATTAACATCAGGCCTTCCCCTGATGTTAATCGGGTCTTGATTCGCTTGACGCTGCTG,6.79,2.84,9.6
CCGATTAACATCAAAAAGTTCCCTGATGTTAATCGGGTCTTGATTCGCTTGACGCTGCTG,5.3,4.37,6.54
CCGATTAACATCAGGGGATGCACTGATGTTAATCGGGTCTTGATTCGCTTGACGCTGCTG,4.83,2.97,9.57
CCGATTAACATCACGGTGGGAAATGATGTTAATCGGGTCTTGATTCGCTTGACGCTGCTG,2.39,2.77,0.971
CCGATTAACATCACCCTCGAGGGTGATGTTAATCGGGTCTTGATTCGCTTGACGCTGCTG,0.756,1.1,1.08
CCGATTAACATCACGGGCTTCCCTGATGTTAATCGGGTCTTGATTCGCTTGACGCTGCTG,2,0.816,7.65
CCGATTAACATCAGGGGGGGTACTGATGTTAATCGGGTCTTGATTCGCTTGACGCTGCTG,3.45,4.54,5.04
CCGATTAACATCAGGAACCTCCCTGATGTTAATCGGGTCTTGATTCGCTTGACGCTGCTG,2.34,0.526,0.94
CCGATTAACATCAAGGGCTTTCCTGATGTTAATCGGGTCTTGATTCGCTTGACGCTGCTG,0.898,0.0543,2.98
CCGATTAACATCATCTGGGAAAATGATGTTAATCGGGTCTTGATTCGCTTGACGCTGCTG,2.91,3.73,-0.237
CCGATTAACATCACGTAAACCCCTGATGTTAATCGGGTCTTGATTCGCTTGACGCTGCTG,2.68,1.08,6.43
CCGATTAACATCAGGGGAGTGGATGATGTTAATCGGGTCTTGATTCGCTTGACGCTGCTG,2.86,1.84,0.758
CCGATTAACATCAGGCAACTCCCTGATGTTAATCGGGTCTTGATTCGCTTGACGCTGCTG,2.44,1.09,0.37
CCGATTAACATCAGGGGTGCCCATGATGTTAATCGGGTCTTGATTCGCTTGACGCTGCTG,0.00434,0.921,3.52
CCGATTAACATCAGGAGTTACCCTGATGTTAATCGGGTCTTGATTCGCTTGACGCTGCTG,3.81,2.23,5.11
CCGATTAACATCACCCCGTCCCCTGATGTTAATCGGGTCTTGATTCGCTTGACGCTGCTG,3.83,3.98,2.65

Sequence,binding signal [1] [z-score],binding signal (GST-Co-NF-kB) [z-score],binding signal (GST-Dm-Relish) [z-score]
CCGATTAACATCAGGGGATTCACTGATGTTAATCGGGTCTTGATTCGCTTGACGCTGCTG,7.31,3.35,10.3
CCGATTAACATCAAAAGCCCCCATGATGTTAATCGGGTCTTGATTCGCTTGACGCTGCTG,6.19,2.08,6.91
CCGATTAACATCAAGTGGGAAAATGATGTTAATCGGGTCTTGATTCGCTTGACGCTGCTG,4.11,2.91,0.942
CCGATTAACATCAGTCCCACAGATGATGTTAATCGGGTCTTGATTCGCTTGACGCTGCTG,1.55,0.912,0.415
CCGATTAACATCAGGGACCTCCCTGATGTTAATCGGGTCTTGATTCGCTTGACGCTGCTG,4.78,0.648,6.16
CCGATTAACATCAAGGGCATCCCTGATGTTAATCGGGTCTTGATTCGCTTGACGCTGCTG,0.664,0.109,5.6
CCGATTAACATCACCCCAAACGCTGATGTTAATCGGGTCTTGATTCGCTTGACGCTGCTG,0.48,1.79,0.468
CCGATTAACATCAGGGGTAGAACTGATGTTAATCGGGTCTTGATTCGCTTGACGCTGCTG,0.839,5.07,0.965
CCGATTAACATCAAAAAACCCCTTGATGTTAATCGGGTCTTGATTCGCTTGACGCTGCTG,8.78,2.05,8.96
CCGATTAACATCAGGGTTTTTAGTGATGTTAATCGGGTCTTGATTCGCTTGACGCTGCTG,1.3,0.428,2.9
CCGATTAACATCAAAACCCCCCGTGATGTTAATCGGGTCTTGATTCGCTTGACGCTGCTG,6.29,5.04,10.2
CCGATTAACATCAGACATTCCCATGATGTTAATCGGGTCTTGATTCGCTTGACGCTGCTG,2.27,1.37,0.989
CCGATTAACATCAAGGGGGAGATTGATGTTAATCGGGTCTTGATTCGCTTGACGCTGCTG,6.09,7.21,3.01
CCGATTAACATCAATAACCCCCATGATGTTAATCGGGTCTTGATTCGCTTGACGCTGCTG,4.47,2.27,5.69
CCGATTAACATCAGTCCCGCACTTGATGTTAATCGGGTCTTGATTCGCTTGACGCTGCTG,1.95,0.933,0.495
CCGATTAACATCAGGGCTTCCCATGATGTTAATCGGGTCTTGATTCGCTTGACGCTGCTG,0.817,1.01,8.36
CCGATTAACATCAGGAAAGCACCTGATGTTAATCGGGTCTTGATTCGCTTGACGCTGCTG,4.19,-0.611,6.13
CCGATTAACATCACAACCCCCCCTGATGTTAATCGGGTCTTGATTCGCTTGACGCTGCTG,3.59,3.83,6.16
CCGATTAACATCAATTCCCACCCTGATGTTAATCGGGTCTTGATTCGCTTGACGCTGCTG,2.6,3.21,2.33
CCGATTAACATCAGGGGATAATATGATGTTAATCGGGTCTTGATTCGCTTGACGCTGCTG,5.47,5.65,2.58
CCGATTAACATCATATTTTCCCATGATGTTAATCGGGTCTTGATTCGCTTGACGCTGCTG,4.42,4.34,0.894
CCGATTAACATCATCCCGGGAAATGATGTTAATCGGGTCTTGATTCGCTTGACGCTGCTG,2.94,–,0.637
CCGATTAACATCAGGGGGTATACTGATGTTAATCGGGTCTTGATTCGCTTGACGCTGCTG,3.11,–,6.38
